According to PubChem BioAssay AID686979 (National Center for Advancing Translational Sciences (NCATS), 2013):
About 50,000 (12%) of roughly 420,000 compounds were called active. The shares of active, inactive and inconclusive entries below differ from those in the screen. Calls follow the shape of the dose curve; as a rule, active = well fitted inhibition curve with a large enough effect; inconclusive = small, poorly fitted or top-dose-only effect; inactive = flat fitted curve, though single readings scatter. No potency is given beside an inconclusive call; the fits are too rough.

Experiment: qHTS for Inhibitors of human tyrosyl-DNA phosphodiesterase 1 (TDP1): qHTS in cells in presence of CPT; also: nearly all actives have a fitted effect of over 55% in size
Details: chicken DT40 Tdp1-/-;hTDP1 cells + 20 nM CPT, ATP luminescence, 48 h; activity change, negative = growth inhibition: at 46.2 µM (top of the series)
How it was run: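 Cell growth measured by CellTiter-Glo luminescence after a minimum 48 h, 37 C compound exposure with 20 nM CPT in Tdp1-knockout DT40 cells stably expressing hTDP1, seeded 400/well; qHTS titration format.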
% is scaled to controls: 0 for no effect and ±100 for the full control effect; potency is read from the fitted curve at half-maximal effect; tags tell the direction and shape of the fitted curve.

Structure (SMILES)	Potency	activity change, negative = growth inhibition
CC(Cc1cccnc1)NC(=O)c1cc(COc2c(F)cccc2F)on1 (stereo unspecified)	inconclusive [inhibitor, single point]	
O=C(COC(=O)c1c(Cl)cccc1Cl)NC1CCCCCCC1	inconclusive [inhibitor, single point]	
COc1ccc(CCNC(=O)C(=O)NCC2OCCN2S(=O)(=O)c2ccc(Cl)cc2)cc1OC (stereo unspecified)	inconclusive [inhibitor, single point]	
CC(C)CCNC(=O)c1onc(CSc2nc3ccccc3[nH]2)c1C(=O)NCCC(C)C	inconclusive [inhibitor, single point]	
COc1ccc(CN(C(=O)c2oc3ccc(F)cc3c2C)C2CCS(=O)(=O)C2)cc1 (stereo unspecified)	inconclusive [inhibitor, single point]	
Cc1ccc(S(=O)(=O)N2CCN(C(=O)CCCN3C(=O)NC4(CCCC4)C3=O)CC2)cc1C	inconclusive [inhibitor, partial curve]	
C=CCn1c(SCC(=O)Nc2ncc(Cc3cc(Cl)ccc3Cl)s2)nnc1-c1ccncc1		inactive: -7.25%
O=C(NCc1cccnc1)C(=O)NCC(c1cccnc1)N1CCN(c2ccccc2)CC1 (stereo unspecified)	inconclusive [inhibitor, single point]	
CCCCCNC(=O)C(CCc1ccccc1)n1c(=O)c(-c2cc3ccccc3[nH]2)nc2ccccc21 (stereo unspecified)	inconclusive [inhibitor, single point]	
Cn1c(C23CC4CC(CC(C4)C2)C3)n[nH]c1=S		inconclusive: -33.9% [inhibitor]
COc1c(C(=O)Nc2ccc(Cc3ccncc3)cc2)ccc2ccccc12	inconclusive [inhibitor, single point]	
CC(C)CCNc1nc2c(S(=O)(=O)c3ccc(Br)cc3)nnn2c2ccsc12	inconclusive [inhibitor, partial curve, poor fit]	
COc1cccc(-c2c(-c3ccccc3OC)ncn2Cc2cccc(-c3ccccc3)c2)c1	active: 8.2 µM	
COc1ccc(CC2(CO)CCN(C(C)COc3ccccc3)CC2)cc1 (stereo unspecified)	inconclusive [inhibitor, partial curve]	
Cc1ccc(Cl)cc1-c1cc(C(=O)NCc2cccc(Cl)c2)[nH]n1	active: 18.4 µM	
CCOC(=O)c1[nH]c2cc3c(cc2c1CCCN1C(=O)c2ccccc2C1=O)OCCO3		inconclusive: -36.9% [inhibitor]
Cc1cc(-n2c(C)cc(C(=O)COc3cccnc3[N+](=O)[O-])c2C)no1	active: 11.6 µM	
Fc1ccc(/C=N/NC(=S)Nc2ccc(Cl)cc2)cc1F	inconclusive [inhibitor, single point]	
Cc1cc(C)c(C#N)c(SCC(=O)N2CCN(Cc3ccccc3)CC2)n1		inconclusive: -34.5% [inhibitor]
COCc1cc(C)nc(OCC(=O)N/N=C/c2ccc(-c3cc([N+](=O)[O-])ccc3C)o2)c1C#N	inconclusive [inhibitor, single point]	
O=C(Nc1ccc(Cl)cc1F)C1CCN(S(=O)(=O)c2cccnc2)CC1	inconclusive [inhibitor, single point]	
C=Cc1ccc(Cn2c(=O)n(-c3ccc(C)cc3)c(=O)c3c2c2cc(OC)ccc2n3C)cc1	inconclusive [inhibitor, partial curve]	

Structure (SMILES)	Potency	activity change, negative = growth inhibition
CN(Cc1ccccc1)C(=O)c1ccc(NC(=O)Cc2cccc(NC(=O)C3CCN(C(=O)C4CCC4)CC3)c2)cc1	inconclusive [inhibitor, single point]	
CCOc1ccc(NC(=O)c2cccc(NC(=O)c3ccccc3)c2)cc1	inconclusive [inhibitor, single point]	
CCCn1c(=O)c2ccccc2n2c(SCC(=O)c3ccc(CC)cc3)nnc12	inconclusive [inhibitor, single point]	
CN(CC(=O)Nc1ccccc1Br)C(=O)c1cc2c(s1)CCCCC2	inconclusive [inhibitor, single point]	
CC1=C(C(=O)OCc2ccccc2)C(c2ccco2)C2=C(CC(C)(C)CC2=O)N1 (stereo unspecified)	inconclusive [inhibitor, single point]	
ON=C(c1ccccc1)c1ccc2c3c(cccc13)CC2	inconclusive [inhibitor, single point]	
COc1ccc(C=O)cc1COc1ccc2c(c1)OCO2	active: 3.66 µM	
COc1cc(OC)c2c(-c3cccc(-c4ccoc4)c3)cc(=O)oc2c1	inconclusive [inhibitor, single point]	
CCOC(=O)C1CCCN(S(=O)(=O)c2ccc3c(c2)CC(C)N3C(=O)C2CC2)C1 (stereo unspecified)	active: 18.4 µM	
O=C(CSc1nnc2ccc(-c3ccco3)nn12)Nc1ccccc1F		inconclusive: -30.5% [inhibitor]
COC(=O)[C@@H]1C[C@H]2CC[C@H](O)C[C@H]2N1Cc1ccc(C(F)(F)F)cc1	inconclusive [inhibitor, single point]	
CCOc1ccc2nc(N3CCCC(C(=O)NCc4ccccc4Cl)C3)sc2c1 (stereo unspecified)	inconclusive [inhibitor, single point]	
COc1ccc2cc(C(=O)NCc3ccc4c(c3)CCN4C(=O)c3ccc(C)cc3)[nH]c2c1	active: 13 µM	
Fc1ccccc1CNc1ncnc2sccc12	active: 4.11 µM	
N#C/C(=C\c1c(F)cccc1Cl)C(=O)NC1CC1	inconclusive [inhibitor, single point]	
CC1=C(C(=O)Nc2ccc(C)cc2C)C(c2cccn2C)n2ncnc2N1 (stereo unspecified)		inactive: -1.71%
CCn1cc(Cl)c(C(=O)Nc2ccccc2C(N)=O)n1		inactive: -5.94%
CC(=O)Nc1nnc(SCc2cc(=O)c3cccc(C)c3[nH]2)s1	inconclusive [inhibitor, partial curve]	
O=C(NCc1ccc2c(c1)OCO2)c1c(-c2ccccc2)sc2ccccc12	inconclusive [inhibitor, single point]	
Nc1nc2c(c(=O)[nH]1)C(c1cccc3ccccc13)C1=C(N2)c2ccccc2C1=O (stereo unspecified)	inconclusive [inhibitor, single point]	
O=C(NCC1CCCO1)C1CCCN(S(=O)(=O)c2ccc(F)cc2)C1 (stereo unspecified)		inactive: -0.832%
Cc1ccc(C)c(Cn2c(C)c(CNCc3ccc(F)cc3)c(C(=O)O)c2C)c1	inconclusive [inhibitor, single point]	

Structure (SMILES)	Potency	activity change, negative = growth inhibition
C[C@H]1CCCCO[C@@H](CN(C)S(=O)(=O)c2ccc(F)cc2)[C@@H](C)CN([C@@H](C)CO)C(=O)c2cc(NC(=O)Nc3ccc4c(c3)OCO4)ccc2O1	active: 18.4 µM	
Nc1cccc(Oc2cnccn2)c1		inactive: 6.72%
Cc1ccc(N(C(=O)c2ccccn2)C2(C(=O)NC3CCCC3)CCCCC2)cc1	active: 0.517 µM	
COc1ccc(CCNC(=O)CCCCCn2c(=O)[nH]c3cc(OC)c(OC)cc3c2=O)cc1OC		inactive: -18.4%
COc1ccc(C2CC(c3cccs3)=NN2C(=O)CSc2nc(=O)n3ccccc3n2)cc1 (stereo unspecified)	inconclusive [inhibitor, single point]	
Fc1ccc(CSc2nc3ccccc3[nH]2)cc1	inconclusive [inhibitor, partial curve, poor fit]	
CCc1ccc(C2=CC(c3cccc(Br)c3)n3nnnc3N2)cc1 (stereo unspecified)	active: 18.4 µM	
CC(=O)c1c(Cl)nc2ccc(Br)cc2c1-c1ccccc1		inactive: -20.9%
COc1ccc(NC(=O)COC(=O)[C@@H]2CCCN2S(=O)(=O)c2ccccc2F)c(OC)c1	inconclusive [inhibitor, single point]	
NC(N)=NCCN1CCCCCCC1	inconclusive [inhibitor, partial curve]	
CCOCCCNC(=O)c1cc(Cl)c(NC(=O)C2=C(C)OCCS2)cc1OC	inconclusive [inhibitor, single point]	
CCOC(=O)c1cccc(NC(c2nnc(-c3ccccc3)o2)c2ccccc2F)c1 (stereo unspecified)	inconclusive [inhibitor, single point]	
CCCCCC(=O)NC(NC(=S)N1CCOCC1)C(Cl)(Cl)Cl (stereo unspecified)	inconclusive [inhibitor, single point]	
CCOc1cc2c3c(c1)C(C)=CC(C)(C)N3C(=O)C2=O	active: 3.26 µM	
C=CCn1c(O)c(N=Nc2ccccc2)c2ccccc21	inconclusive [inhibitor, single point]	
CC(C)Cn1c(-c2ccc(Br)o2)n[nH]c1=S		inactive: -0.978%
Cc1cccc(N2CCN(S(=O)(=O)c3ccc4c(c3)CC(C)N4C(=O)C3CC3)CC2)c1C (stereo unspecified)	inconclusive [inhibitor, single point]	
CCOC(=O)C1=C(CCc2ccccc2)NC(=O)NC1c1ccc2ccccc2c1 (stereo unspecified)	inconclusive [inhibitor, single point]	
CC1CCC(NC(=O)CCS(=O)(=O)c2ccc3c(c2)NC(=O)CO3)CC1 (stereo unspecified)	inconclusive [inhibitor, single point]	
CCCCNC(=O)c1onc(CSc2cccc(Cl)c2)c1C(=O)O	inconclusive [inhibitor, partial curve, poor fit]	
Cc1ccccc1C(=O)N1CCC(C(=O)Nc2ccccc2N2CCCC2)CC1		inactive: -2.3%
Cc1ccc(CNC(=O)C2CCCN(c3nnc(-n4c(C)ccc4C)s3)C2)cc1 (stereo unspecified)	inconclusive [inhibitor, single point]	
